# “And” between values parts separate entries of the source, which are not always exact repeats. Equal values may be shown once. Inconclusive results, whose numbers are uncertain, are shown with a selection of clear calls. Potencies of inconclusive entries are doubtful fits and often do not repeat. The source made the active and inactive calls. Calls follow the shape of the dose curve; as a rule, active = well fitted cell-killing curve with a large enough effect; inconclusive = small, poorly fitted or top-dose-only effect, or effect the other way; inactive = no such curve, though single readings can be large or run the other way.
# Experiment: Viability qHTS for spleen associated tyrosine kinase inhibitor (SYKi) naive MV4-11 cells (AID 1963823); also: nearly all actives have a fitted effect of over 40% in size
# Conditions: MV4-11 AML viability, CellTiter-Glo luminescence, 72 h; series mostly up to 45 µM; viability (% of control): at the top concentration
# Excerpt: Department of Medicine, Hematology/Oncology
# University Hospital Frankfurt, Germany.
# Trials have shown promising clinical activity of the selective SYK inhibitor entospletinib in patients with high expressing HOXA9/MEIS1 acute leukemias. As the development of resistance mechanisms is a common problem in the use of targeted drugs, we performed a chemical library screen to identify drug sensitivities in SYK inhibitor resistant AML cells. […] Glucocorticoids are potent immunosuppressants which work in part by inhibiting the transcription of cytokine genes.
# Described herein is a viability screen to look for activity in the SYK inhibitor naive cell line against four NCATS compound libraries (MIPE 5.0, NPC, NPACT, and Kinase) totaling 11372 compounds. Active hits were reacquired for confirmation and further secondary assay testing.
# SEQUENCE No. (e.g., 1, 2, 3, etc.); […] (e.g., Cells, Incubation, Reagent, etc.); VALUE; DESCRIPTION.
# 1; Media; 2uL; white, solid-bottom Corning assay plate.
# 2; Compounds; 23nL; Echo acoustic dispenser.
# 3; Cell; 5uL; 500 cells per well.
# 4: Incubation; 72hr; 37 C, 5% CO2, 95% humidity.
# 5; Reagent; 3uL; CellTiter-Glo reagent (Promega).
# 6; Incubation; 10min; room temperature.
# 7; Detection; Luminescence; ViewLux plate reader (PerkinElmer).
# NOTES (numbers refer to Sequence numbers above
# 1. Quantitative high-throughput screening (qHTS) of small molecule compounds was conducted on naive SYKi MV4-11 cell line.
# 2. Twenty-three nanoliter of small molecule compounds were added to each assay plates using the Echo acoustic dispenser (Beckman Coulter).
# 3. Cells were seeded into the assay plates at a final density of 500 cells in 5uL of media per well using the Multi-drop Combi dispenser.
# 4. Plates were covered with stainless steel gasketed lids and incubated for 72 hours at standard cell culture conditions.
# 5. Viability was assessed by adding 3uL of CellTiter-Glo detection reagent (Promega).
# 6. Plates were covered with gasket lids and incubated for 10 minutes at room temperature.
# 7. Luminescence was measured on a ViewLux plate reader (PerkinElmer).
# Potency is read from the fitted curve at half-maximal effect; tags tell the direction and shape of the fitted curve.
SMILES,viability (% of control),Potency
CC[C@H](C)[C@@H]([C@@H](CC(=O)N1CCC[C@H]1[C@H](OC)[C@@H](C)C(=O)N[C@@H](Cc1ccccc1)c1nccs1)OC)N(C)C(=O)[C@@H](NC(=O)C(C)(C)N)C(C)C,inactive: 4.04%,–
CN(C)[C@@H]1C(=O)C(C(N)=O)=C(O)[C@@]2(O)C(=O)C3=C(O)c4c(O)ccc(Cl)c4[C@@](C)(O)C3C[C@@H]12 (stereo not given in full),inactive: 70%,–
COC(=O)C1(C)CCC(=O)C2(C)c3c(O)cc(C(C)C)cc3C(O)C(OC(C)=O)C12 (stereo not given),inactive: 87% [at 17.3 µM],–
Cc1ccccc1-n1c(Cn2cnc3c(N)ncnc32)nc2cccc(C)c2c1=O,–,"inconclusive: 2.06 µM [cytotoxic, partial curve]"
CCC1=CC2CN3CCc4c([nH]c5ccccc45)[C@@](C(=O)OC)(C2)[C@@H]13,–,"inconclusive: 16.1 µM [cytotoxic, partial curve]"
C1=C(c2cnc[nH]2)c2ccsc2CC1,–,"inconclusive: 20.6 µM [cytotoxic, partial curve]"
Clc1ccc(C(OCCN2CCCCC2)c2ccccc2)cc1 (stereo not given),–,"inconclusive: 21.1 µM [cytotoxic, partial curve]"
CC(C)[N+](C)(CCC(C(N)=O)(c1ccccc1)c1ccccc1)C(C)C,–,"inconclusive: 33.5 µM [cytotoxic, single point]"
O=C(O)C(Cl)Cl,–,inactive
C=CC(C)(C)C12C=C(O)C(=O)N3/C(=C\c4cnc[nH]4)C(=O)NC31N(OC)c1ccccc12 (stereo not given),–,"inconclusive: 7.96 µM [cytotoxic, partial curve]"
CC(C)=CCN1CC[C@@]2(C)c3cc(O)ccc3C[C@@H]1[C@@H]2C,–,"inconclusive: 5.99 µM [cytotoxic, full curve]"
CC(C)CC(N(C)C)C1(c2ccc(Cl)cc2)CCC1 (stereo not given),–,"inconclusive: 2.99 µM [cytotoxic, partial curve, poor fit] and inconclusive: 23.5 µM [cytotoxic, partial curve, poor fit]"
CN1C(=O)CCS(=O)(=O)C1c1ccc(Cl)cc1 (stereo not given),–,inactive
O=C1OC(CCN2CCCCC2)OC1(c1ccccc1)c1ccccc1 (stereo not given),–,"inconclusive: 3.35 µM [rising, partial curve, poor fit]"
C[C@@H]1[C@H](O)[C@@H](C)/C=C/C=C/CC/C=C/C=C/C=C/C=C/[C@H](O[C@H]2O[C@@H](C)[C@H](O)[C@@H](N)[C@H]2O)C[C@@H]2O[C@](O)(C[C@@H](O)[C@H](O)CC[C@@H](O)C[C@@H](O)C[C@@H](O)CC(=O)O[C@H]1C)C[C@H](O)[C@H]2C(=O)O,–,"inconclusive: 7.96 µM [cytotoxic, single point]"
NC(=O)[C@@H](CC1CC1)[C@@H](CCC(F)(F)F)C(=O)N[C@H]1N=C(c2ccccc2)c2cccc(F)c2NC1=O,–,"inconclusive: 14.6 µM [cytotoxic, partial curve, poor fit]"
Cc1c(Cl)c(=O)oc2cc(OP(=O)(OCCCl)OCCCl)ccc12,–,"inconclusive: 23.7 µM [cytotoxic, single point]"
CCS(=O)(=O)C(C)(C)S(=O)(=O)CC,inactive: 89.3%,–
Clc1ccc(COC(Cn2ccnc2)c2ccc(Cl)cc2Cl)cc1 (stereo not given),–,"inconclusive: 0.106 µM [cytotoxic, full curve, poor fit]"
C#CCOC(C(=O)OCCN(C)C)(c1ccccc1)c1ccccc1,–,"inconclusive: 21.1 µM [cytotoxic, single point]"

SMILES,viability (% of control),Potency
COc1ccc2c(c1)[nH]c1c(C)nccc12,–,active: 13 µM
C=C1C(=O)OC2/C=C(\COO)CC/C=C(\COC(C)=O)CC(OC(=O)C(C)CC)C12 (stereo not given),–,"inconclusive: 2 µM [cytotoxic, full curve]"
C[C@H](Nc1ncnc2nc[nH]c12)c1nc2ccc(F)cc2c(=O)n1-c1ccccc1,–,"inconclusive: 8.33 µM [cytotoxic, partial curve]"
CCCCCCC1C(=O)O[C@H](C)[C@H](NC(=O)c2cccc(NC=O)c2O)C(=O)O[C@@H](C)[C@@H]1OC(=O)CC(C)C (stereo not given in full),–,active: 0.517 µM
N#C/C(=C/c1ccc(O)c(O)c1)C(N)=S,–,"inconclusive: 11.6 µM [cytotoxic, partial curve]"
CCc1cc2c(s1)-n1c(C)nnc1CN=C2c1ccccc1Cl,–,"inconclusive: 0.0019 µM [rising, full curve, poor fit]"
O=C(NCCN1CCC2(CC1)C(=O)NCN2c1cccc(F)c1)c1ccc(F)c(F)c1,–,"inconclusive: 23.1 µM [cytotoxic, partial curve]"
O=C(CBr)Nc1ccc(Cl)cc1C(=O)c1ccccc1F,–,"inconclusive: 21.1 µM [cytotoxic, partial curve]"
Clc1cccc(SC2CCNCC2)n1,inactive: 77%,–
COc1cc(CC(C)N)cc2c1OCO2 (stereo not given),–,"inconclusive: 25.5 µM [cytotoxic, partial curve, poor fit]"
CC1=C(O)C(=O)C=C2C1=CC=C1[C@@]2(C)CC[C@@]2(C)[C@@H]3C[C@](C)(C(=O)O)CC[C@]3(C)CC[C@]12C,–,active: 0.59 µM
COc1cc2c(c(OC)c1OC)-c1ccc(SC)c(=O)cc1[C@@H](NC(C)=O)CC2,–,"inconclusive: 0.0058 µM [cytotoxic, full curve]"
C=C(C)C(=O)O[C@H]1[C@@H]2[C@H](C)C(=O)O[C@@H]2C[C@@H](C)[C@@H]2C=CC(=O)[C@]21C,–,active: 1.43 µM
Cc1ccc([N+](=O)[O-])[c]2c1[O][Hg]2,–,active: 0.0944 µM
COc1cc(CCN)cc(OC)c1OC,–,"inconclusive: 0.0187 µM [cytotoxic, full curve, poor fit]"
N#Cc1nn(-c2c(Cl)cc(C(F)(F)F)cc2Cl)c(N)c1S(=O)C(F)(F)F (stereo not given),–,"inconclusive: 15 µM [cytotoxic, partial curve]"
CCC(C)(O)C1(C(=O)O)COC(=O)C1 (stereo not given),inactive: 82.9% [at 91.9 µM],–
COc1cccc(C(=O)CCN[C@@H](C)[C@H](O)c2ccccc2)c1,–,"inconclusive: 1.88 µM [rising, partial curve, poor fit]"
CC(C)(NC(=O)O[C@@H]1CN2CCC1CC2)c1csc(-c2ccc(F)cc2)n1,–,"inconclusive: 14.8 µM [cytotoxic, partial curve]"
CC1(C)CC/C(=C/c2ccc(Cl)cc2)C1(O)Cn1cncn1 (stereo not given),–,"inconclusive: 17.1 µM [cytotoxic, partial curve, poor fit]"

# Source: PubChem BioAssay (NCATS)
